{"source": "PubChem BioAssay AID485294", "about": "(National Center for Advancing Translational Sciences (NCATS), 2010)", "note": "Hit rate of the full screen: of about 370,000 compounds, about 150 (0.041%) were called active. This list was built around the results that the source calls inconclusive (neither active nor inactive); the mix of calls is not that of the screen. The call rests on the fitted dose curve; in most records, active means well fitted inhibition curve with a large enough effect; inconclusive means small, poorly fitted or top-dose-only effect; inactive means flat fitted curve, though single readings scatter. Potencies of inconclusive entries are left out as doubtful fits. Potency means the concentration at half of the fitted maximal effect; tags describe the fitted curve by direction and shape."}
{"target": "Beta-lactamase (Escherichia coli (strain K12)) (UniProt P00811)", "sequence (P00811 whole entry, looked up)": "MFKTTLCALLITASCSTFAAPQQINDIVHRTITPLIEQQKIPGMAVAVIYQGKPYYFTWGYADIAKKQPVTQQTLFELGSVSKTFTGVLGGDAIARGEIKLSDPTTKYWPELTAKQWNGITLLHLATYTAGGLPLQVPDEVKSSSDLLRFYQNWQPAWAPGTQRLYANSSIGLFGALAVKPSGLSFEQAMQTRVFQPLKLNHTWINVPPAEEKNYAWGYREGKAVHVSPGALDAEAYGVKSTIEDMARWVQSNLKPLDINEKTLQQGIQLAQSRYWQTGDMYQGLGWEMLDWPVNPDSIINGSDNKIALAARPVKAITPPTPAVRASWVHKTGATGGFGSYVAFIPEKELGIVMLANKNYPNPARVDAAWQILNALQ", "assay": "qHTS Inhibitors of AmpC Beta-Lactamase (assay with detergent); further: nearly all actives have a fitted effect of over 25% in size", "details": "AmpC hydrolysis of nitrocefin, absorbance 480 nm, 0.01% Triton; series mostly up to 114 µM", "method_in_brief": "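AmpC (5.3 nM in the dispensed reagent) in 20 mM phosphate pH 7.0 with 0.01% (detergent screen) or 0.0001% Triton X-100 was preincubated with compounds for 15 min at room temperature. Nitrocefin was then added from an 800 uM solution, and hydrolysis was followed at 480 nm.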"}
{"smiles": "COc1ccc2nc(N3CCCC3)c(C#N)cc2c1", "Potency": "inconclusive [inhibitor, full curve, poor fit]"}
{"smiles": "Cc1ccc(S(=O)(=O)N2CCN(C(=O)C3CCN(C(=O)c4ccc(F)cc4)CC3)CC2)c(C)c1", "Potency": "inconclusive [inhibitor, partial curve, poor fit]"}
{"smiles": "Cc1c(NC(=O)CN2CCCc3ccccc32)c(=O)n(-c2ccccc2)n1C", "Potency": "inconclusive [inhibitor, partial curve, poor fit]"}
{"smiles": "COc1ccc(CC(=O)Nc2cc(-c3nc4cccnc4s3)ccc2C)cc1", "Potency": "inactive"}
{"smiles": "Cc1ccsc1/C=N/n1c(-c2ccccc2)n[nH]c1=S", "Potency": "inconclusive [inhibitor, full curve, poor fit]"}
{"smiles": "Cc1ccc2[nH]c(=O)c3cc(C(=O)NCCN4CCN(C)CC4)sc3c2c1", "Potency": "inconclusive [inhibitor, partial curve]"}
{"smiles": "Cc1cccc(NS(=O)(=O)c2cccc(C(=O)NCCCN3CCCC3=O)c2)c1", "Potency": "inconclusive [inhibitor, partial curve, poor fit]"}
{"smiles": "C/C(=N\\NC(=O)c1nn(C)c(C)c1Br)c1ccc(NC(=O)C2CCCC2)cc1", "Potency": "inactive"}
{"smiles": "Cc1cccnc1NC(=O)CSc1nnc(COc2ccc(C(C)C)cc2)n1C", "Potency": "inconclusive [inhibitor, partial curve]"}
{"smiles": "COC(=O)c1cc(NS(=O)(=O)c2ccc(NCc3cccnc3)c(N)c2)cc(C(=O)OC)c1", "Potency": "inconclusive [inhibitor, full curve, poor fit]"}
{"smiles": "COc1cccc(NC(=S)N(CCc2nc3cc(C)c(C)cc3[nH]2)Cc2cccnc2)c1", "Potency": "inactive"}
{"smiles": "CC(C)CCNC(=O)CNC(=O)c1cccs1", "Potency": "inconclusive [inhibitor, full curve, poor fit]"}
{"smiles": "[N-]=[N+]=NCc1cn2cccnc2n1", "Potency": "inconclusive [inhibitor, full curve, poor fit]"}
{"smiles": "CC(=O)c1cnc2nc(C)nn2c1C", "Potency": "inconclusive [inhibitor, partial curve, poor fit]"}
{"smiles": "Cc1cnn(CCC(=O)NNC(=S)NCC(C)C)c1", "Potency": "inconclusive [inhibitor, full curve]"}
{"smiles": "COc1ccc(C(=O)/C=C(\\N)C(F)(F)F)c(O)c1", "Potency": "inconclusive [inhibitor, partial curve, poor fit]"}
{"smiles": "Cc1c(O)c(CN2CCCCC2)cc2c3c(c(=O)oc12)CCC3", "Potency": "inconclusive [inhibitor, full curve]"}
{"smiles": "O=C(NC1CCCCCC1)c1cccc(COCC(F)(F)F)c1", "Potency": "inactive"}
{"smiles": "Cc1ccc(C(=O)NC(=S)N2CCN(c3ccccc3F)CC2)cc1", "Potency": "inconclusive [inhibitor, full curve, poor fit]"}
{"smiles": "O=C(NCc1ccccc1Br)c1ccc2c(c1)nc1n2CCOC1", "Potency": "inactive"}
{"smiles": "O=C(NCCc1ccccc1)c1cc2ccccc2oc1=O", "Potency": "inconclusive [inhibitor, full curve, poor fit]"}
{"smiles": "CC(NC(=O)CCCN1C(=O)c2ccccc2C1=O)c1ccc2c(c1)CCCC2", "note": "(stereo not drawn)", "Potency": "inactive"}
{"smiles": "CC(C)Oc1ccc(C(=O)N2CCN(C(=O)c3ccco3)CC2)cc1", "Potency": "inactive"}
{"smiles": "COc1ccc(/C=N/NC(=S)Nc2ccccc2)cc1COc1ccc(F)cc1", "Potency": "inactive"}
{"smiles": "Cc1ccc(C(=O)N/N=C/c2ccc(-c3ccccc3[N+](=O)[O-])o2)cn1", "Potency": "inactive"}
{"smiles": "COCCCn1c(=N)c(C(=O)NCc2cccnc2)cc2c(=O)n3cccc(C)c3nc21", "Potency": "inactive"}
{"smiles": "Cc1ccn2c(Nc3ccccc3)c(-c3ccccn3)nc2c1", "Potency": "inconclusive [inhibitor, single point]"}
{"smiles": "CN1C(=O)Cc2cc(S(=O)(=O)CCC(=O)Nc3ccc(Cl)c(C(F)(F)F)c3)ccc21", "Potency": "inactive"}
{"smiles": "O=c1c(Cl)c(N2CCN(c3ccc(F)cc3)CC2)cnn1C12CC3CC(CC(C3)C1)C2", "Potency": "inconclusive [inhibitor, single point]"}
{"smiles": "CC(=O)c1cnc2scnn2c1=O", "Potency": "inactive"}
{"smiles": "O=C(Nc1cc(C(F)(F)F)ccc1N1CCOCC1)c1ccc(F)cc1", "Potency": "inconclusive [inhibitor, full curve, poor fit]"}
{"smiles": "COc1ccc(C2NC(=S)N3C(c4ccc(OC)cc4)NC(=S)N23)cc1", "note": "(stereo not drawn)", "Potency": "inconclusive [inhibitor, single point]"}
{"smiles": "O=[N+]([O-])/C=C1\\NCCN1Cc1ccc(Cl)nc1", "Potency": "inconclusive [inhibitor, partial curve, poor fit]"}
{"smiles": "CCc1nnc(NS(=O)(=O)c2ccc(NC(=O)c3ccc(Br)cc3)cc2)s1", "Potency": "inconclusive [inhibitor, full curve]"}
{"smiles": "O=C(c1ccccc1S(=O)(=O)NCC(O)COc1ccc([N+](=O)[O-])cc1)N1CCCCC1", "note": "(stereo not drawn)", "Potency": "inconclusive [inhibitor, partial curve, poor fit]"}
{"smiles": "CCOc1ccc(CN2CCNC(=O)C2CC(=O)NCc2csc(C(C)C)n2)cc1", "note": "(stereo not drawn)", "Potency": "inconclusive [inhibitor, partial curve]"}
{"smiles": "COC(=O)c1ccc(NC(=O)CN(c2ccc(C)cc2)S(=O)(=O)c2c(C)nn(C)c2C)cc1", "Potency": "inconclusive [inhibitor, partial curve, poor fit]"}
{"smiles": "C#CCOCCOCCOCCNc1nc(N2CCN(C(=O)[C@H]([C@@H](C)CC)n3cc([C@@H](N)CO)nn3)CC2)nc(N2CCN(C(=O)[C@H](Cc3cc4ccccc4[nH]3)n3cc([C@@H](N)Cc4ccc(O)cc4)nn3)CC2)n1", "Potency": "inactive"}
{"smiles": "O=C(CCC1N=C2c3ccccc3N=C(SCc3cccc(F)c3)N2C1=O)NCCc1ccccc1", "note": "(stereo not drawn)", "Potency": "inactive"}
{"smiles": "Cc1ccc2nc(-c3ccc(NC(=O)CCN4C(=O)c5ccccc5C4=O)cc3)sc2c1", "Potency": "inactive"}
{"smiles": "Cc1cc(Cl)c(S(=O)(=O)N2CCN(c3ccccn3)CC2)cc1OCC(=O)NC1CCCCC1", "Potency": "inactive"}
{"smiles": "CCC1Sc2ccc(S(=O)(=O)CCC(=O)Nc3ccc(NC(C)=O)cc3)cc2NC1=O", "note": "(stereo not drawn)", "Potency": "inactive"}
{"smiles": "CN(Cc1ccccc1)C(=O)c1cc2cc(F)ccc2[nH]1", "Potency": "inactive"}
